# Values quoted from earlier work in patent US8816078B2, “Acidic gas removal by aqueous amine solvents” (Board of Regents, The University of Texas System, priority 2010, dated 2014).
# Conditions: 150° C.; 2 weeks; α 0.4 moles CO2 per mole alkalinity (Davis, 2009); cited from earlier work
smiles,measurement,value
"NCCO [MEA, monoethanolamine]",loss of the initial amine,67%
